From publication PMC10965993
No constants are given. Whether binding was seen depends on the method and setting. Binding seen in cells or lysates may run through a third protein. Some binding calls cover weakened binding; strength is not graded here. For part of these data: Tags and fused reporters may be left off the sequences shown.

Amino acid sequences for entries named in this document (tags omitted). A change or cut given only in a name is not applied to a line headed by its entry. Chains listed by the source or under a name are the forms on record and can include a tag or linker. Residues count along the entry.
UniProt P29317: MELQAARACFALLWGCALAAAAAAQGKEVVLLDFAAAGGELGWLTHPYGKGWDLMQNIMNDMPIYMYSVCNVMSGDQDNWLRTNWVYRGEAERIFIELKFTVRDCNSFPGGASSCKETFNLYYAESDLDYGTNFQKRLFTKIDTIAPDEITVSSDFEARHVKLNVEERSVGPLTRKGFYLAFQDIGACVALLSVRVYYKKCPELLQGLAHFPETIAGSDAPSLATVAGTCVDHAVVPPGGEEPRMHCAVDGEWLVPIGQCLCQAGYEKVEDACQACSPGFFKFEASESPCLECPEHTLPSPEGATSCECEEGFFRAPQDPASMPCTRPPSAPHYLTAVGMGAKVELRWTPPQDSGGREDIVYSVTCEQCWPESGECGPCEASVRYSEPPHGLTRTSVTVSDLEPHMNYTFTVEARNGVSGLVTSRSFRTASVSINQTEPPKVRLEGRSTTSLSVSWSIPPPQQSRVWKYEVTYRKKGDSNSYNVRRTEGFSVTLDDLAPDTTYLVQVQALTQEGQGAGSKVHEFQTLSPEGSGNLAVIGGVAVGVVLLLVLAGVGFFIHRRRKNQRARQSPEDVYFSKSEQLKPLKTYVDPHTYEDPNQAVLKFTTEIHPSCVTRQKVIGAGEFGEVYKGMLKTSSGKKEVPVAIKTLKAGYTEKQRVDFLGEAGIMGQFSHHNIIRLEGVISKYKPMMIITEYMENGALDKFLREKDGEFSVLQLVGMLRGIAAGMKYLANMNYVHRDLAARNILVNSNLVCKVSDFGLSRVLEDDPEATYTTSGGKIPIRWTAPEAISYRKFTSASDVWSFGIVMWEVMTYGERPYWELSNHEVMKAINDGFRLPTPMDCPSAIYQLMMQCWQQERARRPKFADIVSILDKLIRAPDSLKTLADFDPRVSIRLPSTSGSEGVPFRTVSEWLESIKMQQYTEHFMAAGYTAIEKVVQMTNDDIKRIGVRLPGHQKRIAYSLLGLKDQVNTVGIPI
Flag-tagged EPHA2 (Flag-EPHA2): residues 24-976 of P29317
EPHA2-F2 (559-976): residues 559-976 of P29317

Legend:
[1] = target: Flag-tagged EPHA2 (Flag-EPHA2) (UniProt P29317); assay: co-IP; HEK293T cells transfected with the indicated Myc- and Flag-tagged constructs; immunoprecipitated with anti-Flag or anti-Myc antibodies, Western blot of lysates and precipitates
[2] = target: EPHA2, endogenous (human (endogenous in cell lysates, cell line not named)) (UniProt P29317); assay: co-IP; endogenous proteins; cell lysates immunoprecipitated with control IgG, anti-USP3 or anti-EPHA2 antibodies, protein A/G-Sepharose beads, washed 3 times with cold PBS, Western blot
[3] = target: EPHA2-F2 (559-976) (UniProt P29317); assay: co-IP; HEK293T cells transfected with the indicated Myc- and Flag-tagged constructs; immunoprecipitated with anti-Flag or anti-Myc antibodies, Western blot of lysates and precipitates

Row | binding [1] | binding [2] | binding [3] | Binder
1 |  | binds |  | Ubiquitin-specific protease 3 (USP3), endogenous (enzyme, UniProt Q9Y6I4 1-520) MECPHLSSSVCIAPDSAKFPNGSPSSWCCSVCRSNKSPWVCLTCSSVHCGRYVNGHAKKHYEDAQVPLTNHKKSEKQDKVQHTVCMDCSSYSTYCYRCDDFVVNDTKLGLVQKVREHLQNLENSAFTADRHKKRKLLENSTLNSKLLKVNGSTTAICATGLRNLGNTCFMNAILQSLSNIEQFCCYFKELPAVELRNGKTAGRRTYHTRSQGDNNVSLVEEFRKTLCALWQGSQTAFSPESLFYVVWKIMPNFRGYQQQDAHEFMRYLLDHLHLELQGGFNGVSRSAILQENSTLSASNKCCINGASTVVTAIFGGILQNEVNCLICGTESRKFDPFLDLSLDIPSQFRSKRSKNQENGPVCSLRDCLRSFTDLEELDETELYMCHKCKKKQKSTKKFWIQKLPKVLCLHLKRFHWTAYLRNKVDTYVEFPLRGLDMKCYLLEPENSGPESCLYDLAAVVVHHGSGVGSGHYTAYATHEGRWFHFNDSTVTLTDEETVVKAKAYILFYVEHQAKAGSDKL
2 | binds |  |  | USP3-F2 (159-520) (domain or fragment, UniProt Q9Y6I4 159-520) TGLRNLGNTCFMNAILQSLSNIEQFCCYFKELPAVELRNGKTAGRRTYHTRSQGDNNVSLVEEFRKTLCALWQGSQTAFSPESLFYVVWKIMPNFRGYQQQDAHEFMRYLLDHLHLELQGGFNGVSRSAILQENSTLSASNKCCINGASTVVTAIFGGILQNEVNCLICGTESRKFDPFLDLSLDIPSQFRSKRSKNQENGPVCSLRDCLRSFTDLEELDETELYMCHKCKKKQKSTKKFWIQKLPKVLCLHLKRFHWTAYLRNKVDTYVEFPLRGLDMKCYLLEPENSGPESCLYDLAAVVVHHGSGVGSGHYTAYATHEGRWFHFNDSTVTLTDEETVVKAKAYILFYVEHQAKAGSDKL

More lines, now with the values behind:

Row | Binder | binding [1] | binding [2] | binding [3]
3 | USP3-F1 (1-158) (domain or fragment, UniProt Q9Y6I4 1-158) MECPHLSSSVCIAPDSAKFPNGSPSSWCCSVCRSNKSPWVCLTCSSVHCGRYVNGHAKKHYEDAQVPLTNHKKSEKQDKVQHTVCMDCSSYSTYCYRCDDFVVNDTKLGLVQKVREHLQNLENSAFTADRHKKRKLLENSTLNSKLLKVNGSTTAICA | no binding |  | 
4 | Myc-USP3 R203A (enzyme, UniProt Q9Y6I4 1-520) MECPHLSSSVCIAPDSAKFPNGSPSSWCCSVCRSNKSPWVCLTCSSVHCGRYVNGHAKKHYEDAQVPLTNHKKSEKQDKVQHTVCMDCSSYSTYCYRCDDFVVNDTKLGLVQKVREHLQNLENSAFTADRHKKRKLLENSTLNSKLLKVNGSTTAICATGLRNLGNTCFMNAILQSLSNIEQFCCYFKELPAVELRNGKTAGARTYHTRSQGDNNVSLVEEFRKTLCALWQGSQTAFSPESLFYVVWKIMPNFRGYQQQDAHEFMRYLLDHLHLELQGGFNGVSRSAILQENSTLSASNKCCINGASTVVTAIFGGILQNEVNCLICGTESRKFDPFLDLSLDIPSQFRSKRSKNQENGPVCSLRDCLRSFTDLEELDETELYMCHKCKKKQKSTKKFWIQKLPKVLCLHLKRFHWTAYLRNKVDTYVEFPLRGLDMKCYLLEPENSGPESCLYDLAAVVVHHGSGVGSGHYTAYATHEGRWFHFNDSTVTLTDEETVVKAKAYILFYVEHQAKAGSDKL | no binding |  | 
5 | Myc-tagged human USP3 (Myc-USP3) (enzyme, UniProt Q9Y6I4 1-520) MECPHLSSSVCIAPDSAKFPNGSPSSWCCSVCRSNKSPWVCLTCSSVHCGRYVNGHAKKHYEDAQVPLTNHKKSEKQDKVQHTVCMDCSSYSTYCYRCDDFVVNDTKLGLVQKVREHLQNLENSAFTADRHKKRKLLENSTLNSKLLKVNGSTTAICATGLRNLGNTCFMNAILQSLSNIEQFCCYFKELPAVELRNGKTAGRRTYHTRSQGDNNVSLVEEFRKTLCALWQGSQTAFSPESLFYVVWKIMPNFRGYQQQDAHEFMRYLLDHLHLELQGGFNGVSRSAILQENSTLSASNKCCINGASTVVTAIFGGILQNEVNCLICGTESRKFDPFLDLSLDIPSQFRSKRSKNQENGPVCSLRDCLRSFTDLEELDETELYMCHKCKKKQKSTKKFWIQKLPKVLCLHLKRFHWTAYLRNKVDTYVEFPLRGLDMKCYLLEPENSGPESCLYDLAAVVVHHGSGVGSGHYTAYATHEGRWFHFNDSTVTLTDEETVVKAKAYILFYVEHQAKAGSDKL | binds |  | binds
